# Data taken from the supplement of paper PMC8728848.
# Some of the results follow.
# B1: LecB PA14 (Pseudomonas aeruginosa) (protein)
# chain: MATQGVFTLPANTQFGVTAFANSAGTQTVNVQVNNETVATFTGQSTNNAIIGSKVLNSGGGGKVQILVSVNGRSSDLVSAQVILANELNFALVGSEDSTDNDYNDAVVVINWPLG
# Tests used:
# Experiment in all cases: glycan array binding signal (z-score within array); higher = stronger binding
# Conditions in all cases: glycan notation: IUPAC condensed, linker removed
# Neu5Ac(a2-3)GalNAc = target: Neu5Ac(a2-3)GalNAc
# How it was run: (§1)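 From the Consortium for Functional Glycomics database, 3228 arrays were curated, keeping only those whose protein sequence was available. Binding is given as a within-array Z-score averaged across arrays sharing a protein sequence and across linkers. Negative Z-scores can be read as non-binding.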
# [1] = target: Neu5Ac(a2-3)GalNAc(b1-4)GlcNAc
# How it was run: as §1
# [2] = target: Neu5Ac(a2-3)[GalNAc(b1-4)]Gal(b1-4)Glc
# How it was run: as §1
# [3] = target: Neu5Ac(a2-3)[GalNAc(b1-4)]Gal(b1-4)GlcNAc
# How it was run: as §1
# [4] = target: Neu5Ac(a2-3)[GalNAc(b1-4)]Gal(b1-4)GlcNAc(b1-3)GalNAc
# How it was run: as §1
# [5] = target: Neu5Ac(a2-3)[Neu5Ac(a2-6)]GalNAc
# How it was run: as §1
# Neu5Ac(a2-6)Gal = target: Neu5Ac(a2-6)Gal
# How it was run: as §1
# [6] = target: Neu5Ac(a2-6)Gal(b1-3)GlcNAc(b1-3)[Gal(b1-4)GlcNAc(b1-6)]Gal(b1-4)Glc
# How it was run: as §1
# Neu5Ac(a2-6)Gal(b1-4)Glc = target: Neu5Ac(a2-6)Gal(b1-4)Glc
# How it was run: as §1
# [7] = target: Neu5Ac(a2-6)Gal(b1-4)GlcNAc
# How it was run: as §1
# [8] = target: Neu5Ac(a2-6)Gal(b1-4)GlcNAc(b1-2)Man
# How it was run: as §1
# [9] = target: Neu5Ac(a2-6)Gal(b1-4)GlcNAc(b1-2)Man(a1-3)Man(b1-4)GlcNAc(b1-4)GlcNAc
# How it was run: as §1
# [10] = target: Neu5Ac(a2-6)Gal(b1-4)GlcNAc(b1-2)Man(a1-3)[Gal(b1-4)GlcNAc(b1-2)Man(a1-6)]Man(b1-4)GlcNAc(b1-4)GlcNAc
# How it was run: as §1
# [11] = target: Neu5Ac(a2-6)Gal(b1-4)GlcNAc(b1-2)Man(a1-3)[GlcNAc(b1-4)][Neu5Ac(a2-6)Gal(b1-4)GlcNAc(b1-2)Man(a1-6)]Man(b1-4)GlcNAc(b1-4)GlcNAc
# How it was run: as §1
# [12] = target: Neu5Ac(a2-6)Gal(b1-4)GlcNAc(b1-2)Man(a1-3)[Man(a1-6)]Man(b1-4)GlcNAc(b1-4)GlcNAc
# How it was run: as §1
# [13] = target: Neu5Ac(a2-6)Gal(b1-4)GlcNAc(b1-2)Man(a1-3)[Neu5Ac(a2-3)Gal(b1-4)GlcNAc(b1-2)Man(a1-6)]Man(b1-4)GlcNAc(b1-4)GlcNAc
# How it was run: as §1
# [14] = target: Neu5Ac(a2-6)Gal(b1-4)GlcNAc(b1-2)Man(a1-3)[Neu5Ac(a2-6)Gal(b1-4)GlcNAc(b1-2)Man(a1-6)]Man(b1-4)GlcNAc(b1-4)GlcNAc
# How it was run: as §1
# [15] = target: Neu5Ac(a2-6)Gal(b1-4)GlcNAc(b1-2)Man(a1-3)[Neu5Ac(a2-6)Gal(b1-4)GlcNAc(b1-2)Man(a1-6)]Man(b1-4)GlcNAc(b1-4)[Fuc(a1-6)]GlcNAc
# How it was run: as §1
# [16] = target: Neu5Ac(a2-6)Gal(b1-4)GlcNAc(b1-2)Man(a1-6)Man(b1-4)GlcNAc(b1-4)GlcNAc
# How it was run: as §1
# [17] = target: Neu5Ac(a2-6)Gal(b1-4)GlcNAc(b1-2)Man(a1-6)[Gal(b1-4)GlcNAc(b1-2)Man(a1-3)]Man(b1-4)GlcNAc(b1-4)GlcNAc
# How it was run: as §1
# [18] = target: Neu5Ac(a2-6)Gal(b1-4)GlcNAc(b1-2)Man(a1-6)[GlcNAc(b1-2)Man(a1-3)]Man(b1-4)GlcNAc(b1-4)GlcNAc
# How it was run: as §1
# [19] = target: Neu5Ac(a2-6)Gal(b1-4)GlcNAc(b1-2)Man(a1-6)[Man(a1-3)]Man(b1-4)GlcNAc(b1-4)GlcNAc
# How it was run: as §1
# [20] = target: Neu5Ac(a2-6)Gal(b1-4)GlcNAc(b1-2)[Neu5Ac(a2-6)Gal(b1-4)GlcNAc(b1-4)]Man(a1-3)[GlcNAc(b1-4)][Neu5Ac(a2-6)Gal(b1-4)GlcNAc(b1-2)[Neu5Ac(a2-6)Gal(b1-4)GlcNAc(b1-6)]Man(a1-6)]Man(b1-4)GlcNAc(b1-4)GlcNAc
# How it was run: as §1
# [21] = target: Neu5Ac(a2-6)Gal(b1-4)GlcNAc(b1-2)[Neu5Ac(a2-6)Gal(b1-4)GlcNAc(b1-4)]Man(a1-3)[GlcNAc(b1-4)][Neu5Ac(a2-6)Gal(b1-4)GlcNAc(b1-4)Man(a1-6)]Man(b1-4)GlcNAc(b1-4)GlcNAc
# How it was run: as §1
# [22] = target: Neu5Ac(a2-6)Gal(b1-4)GlcNAc(b1-2)[Neu5Ac(a2-6)Gal(b1-4)GlcNAc(b1-6)]Man(a1-6)[Neu5Ac(a2-6)Gal(b1-4)GlcNAc(b1-2)Man(a1-3)][GlcNAc(b1-4)]Man(b1-4)GlcNAc(b1-4)GlcNAc
# How it was run: as §1
# [23] = target: Neu5Ac(a2-6)Gal(b1-4)GlcNAc(b1-3)Gal(b1-3)GlcNAc
# How it was run: as §1
# [24] = target: Neu5Ac(a2-6)Gal(b1-4)GlcNAc(b1-3)Gal(b1-4)GlcNAc
# How it was run: as §1
# [25] = target: Neu5Ac(a2-6)Gal(b1-4)GlcNAc(b1-3)Gal(b1-4)GlcNAc(b1-2)Man(a1-3)[Neu5Ac(a2-6)Gal(b1-4)GlcNAc(b1-3)Gal(b1-4)GlcNAc(b1-2)Man(a1-6)]GalNAc
# How it was run: as §1
# [26] = target: Neu5Ac(a2-6)Gal(b1-4)GlcNAc(b1-3)Gal(b1-4)GlcNAc(b1-3)Gal(b1-4)GlcNAc
# How it was run: as §1
# [27] = target: Neu5Ac(a2-6)Gal(b1-4)GlcNAc(b1-3)Gal(b1-4)GlcNAc(b1-3)Gal(b1-4)GlcNAc(b1-2)Man(a1-3)[Neu5Ac(a2-6)Gal(b1-4)GlcNAc(b1-3)Gal(b1-4)GlcNAc(b1-3)Gal(b1-4)GlcNAc(b1-2)Man(a1-6)]GalNAc
# How it was run: as §1
# [28] = target: Neu5Ac(a2-6)Gal(b1-4)GlcNAc(b1-3)Gal(b1-4)GlcNAc(b1-3)GalNAc
# How it was run: as §1
# [29] = target: Neu5Ac(a2-6)Gal(b1-4)GlcNAc(b1-3)Gal(b1-4)GlcNAc(b1-3)[Neu5Ac(a2-6)Gal(b1-4)GlcNAc(b1-3)Gal(b1-4)GlcNAc(b1-6)]GalNAc
# How it was run: as §1
# [30] = target: Neu5Ac(a2-6)Gal(b1-4)GlcNAc(b1-3)Gal(b1-4)GlcNAc(b1-6)[Gal(b1-3)]GalNAc
# How it was run: as §1
# [31] = target: Neu5Ac(a2-6)Gal(b1-4)GlcNAc(b1-3)Gal(b1-4)[Fuc(a1-3)]GlcNAc(b1-3)Gal(b1-4)[Fuc(a1-3)]GlcNAc
# How it was run: as §1
# [32] = target: Neu5Ac(a2-6)Gal(b1-4)GlcNAc(b1-3)GalNAc
# How it was run: as §1
# [33] = target: Neu5Ac(a2-6)Gal(b1-4)GlcNAc(b1-3)[Neu5Ac(a2-6)Gal(b1-4)GlcNAc(b1-6)]GalNAc
# How it was run: as §1
# [34] = target: Neu5Ac(a2-6)Gal(b1-4)GlcNAc(b1-6)GalNAc
# How it was run: as §1
# [35] = target: Neu5Ac(a2-6)Gal(b1-4)GlcNAc(b1-6)[Gal(b1-3)GlcNAc(b1-3)]Gal(b1-4)Glc
# How it was run: as §1
# [36] = target: Neu5Ac(a2-6)Gal(b1-4)GlcNAc(b1-6)[Gal(b1-3)]GalNAc
# How it was run: as §1
# [37] = target: Neu5Ac(a2-6)Gal(b1-4)GlcNAc6S
# How it was run: as §1
# Neu5Ac(a2-6)GalNAc = target: Neu5Ac(a2-6)GalNAc
# How it was run: as §1
# [38] = target: Neu5Ac(a2-6)GalNAc(b1-4)GlcNAc
# How it was run: as §1
# [39] = target: Neu5Ac(a2-6)GalNAc(b1-4)GlcNAc6S
# How it was run: as §1
# [40] = target: Neu5Ac(a2-6)GlcNAc(b1-4)GlcNAc
# How it was run: as §1
# [41] = target: Neu5Ac(a2-6)GlcNAc(b1-4)GlcNAc(b1-4)GlcNAc
# How it was run: as §1
binder,measurement,setting,value
B1,glycan array binding signal (z-score),Neu5Ac(a2-3)GalNAc,-0.37
same,glycan array binding signal (z-score),[1],-0.298
same,glycan array binding signal (z-score),[2],-0.699
same,glycan array binding signal (z-score),[3],-0.48
same,glycan array binding signal (z-score),[4],-0.357
same,glycan array binding signal (z-score),[5],0.133
same,glycan array binding signal (z-score),Neu5Ac(a2-6)Gal,-0.036
same,glycan array binding signal (z-score),[6],0.253
same,glycan array binding signal (z-score),Neu5Ac(a2-6)Gal(b1-4)Glc,-0.433
same,glycan array binding signal (z-score),[7],-0.39
same,glycan array binding signal (z-score),[8],-0.962
same,glycan array binding signal (z-score),[9],0.474
same,glycan array binding signal (z-score),[10],0.203
same,glycan array binding signal (z-score),[11],-0.346
same,glycan array binding signal (z-score),[12],-0.527
same,glycan array binding signal (z-score),[13],-0.741
same,glycan array binding signal (z-score),[14],-0.058
same,glycan array binding signal (z-score),[15],0.382
same,glycan array binding signal (z-score),[16],-0.246
same,glycan array binding signal (z-score),[17],-0.666
same,glycan array binding signal (z-score),[18],0.251
same,glycan array binding signal (z-score),[19],-0.268
same,glycan array binding signal (z-score),[20],0.347
same,glycan array binding signal (z-score),[21],0.321
same,glycan array binding signal (z-score),[22],-0.414
same,glycan array binding signal (z-score),[23],-0.465
same,glycan array binding signal (z-score),[24],-0.861
same,glycan array binding signal (z-score),[25],-0.772
same,glycan array binding signal (z-score),[26],-0.744
same,glycan array binding signal (z-score),[27],1.06
same,glycan array binding signal (z-score),[28],-0.543
same,glycan array binding signal (z-score),[29],-0.64
same,glycan array binding signal (z-score),[30],-0.255
same,glycan array binding signal (z-score),[31],1.38
same,glycan array binding signal (z-score),[32],-0.278
same,glycan array binding signal (z-score),[33],-0.594
same,glycan array binding signal (z-score),[34],-0.193
same,glycan array binding signal (z-score),[35],-0.503
same,glycan array binding signal (z-score),[36],0.002
same,glycan array binding signal (z-score),[37],-0.614
same,glycan array binding signal (z-score),Neu5Ac(a2-6)GalNAc,-0.019
same,glycan array binding signal (z-score),[38],-0.082
same,glycan array binding signal (z-score),[39],0.024
same,glycan array binding signal (z-score),[40],-0.109
same,glycan array binding signal (z-score),[41],-0.669
